Source: a collection of fitness landscapes (doi:10.1016/j.celrep.2020.107928)
The full ranking holds about 81,000 sequences; the median of “one-hybrid fitness for binding parS DNA” is about -0.17, and the highest 2% start at about 0.51. The list shows a part of the results.

B1: Caulobacter ParB omega fusion; a variant is named by its letters at X, in order, B8GW30 (parent)
chain: MESVVVGEPGMSEGRRGLGRGLSALLGEVDAAPAQAPGEQLGGSREAPIEILQRNPDQPRRTFREEDLEDLSNSIREKGVLQPILVRPSPDTAGEYQIVAGERAWRAAQRAGLKTVPIMVRELDDLAVLEIGIIENVQRADLNVLEEALSYKVLMEKFERTQENIAQTIGKSXSHVANXMRLLXLPDEVQSYLVSGELTAXHARAIAAAADPVALAKQIIEGGLSVRETEALARKAPNLSAGKSKGGRPPRVKDTDTQALESDLSSVLGLDVSIDHRGSTGTLTITYATLEQLDDLCNRLTRGI

Variants of: B1
Test: one-hybrid fitness for binding parS DNA (scaled: cognate 1, non-cognate 0); higher = stronger binding
Conditions: with parS DNA site
Summary of the method: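 Caulobacter ParB libraries with four specificity codons randomised were screened by bacterial one-hybrid selection in the E. coli USO strain, using a HIS3 reporter whose site lies 19 bp from the promoter. Selection ran for 48 hours at 37°C on M9 lacking histidine, with 0.1 mM IPTG and 5 mM 3-AT. Plasmids were Illumina-sequenced before and after selection, three replicate libraries were pooled, and variants with under 10 reads were dropped. Fitness is the log change in each variant's read ratio to wild type, rescaled against the cognate and non-cognate sites.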

Variant	one-hybrid fitness for binding parS DNA
SRRT	≤ 0.2
ENND	≤ 0.2
DNQM	≤ 0.2
PGRA	≤ 0.2
ARDE	≤ 0.2
VVHL	≤ 0.2
GPNH	≤ 0.2
VAGL	≤ 0.2
PPVT	≤ 0.2
RCFH	≤ 0.2
NYKT	≤ 0.2
GQHI	≤ 0.2
QPSV	≤ 0.2
ENTK	≤ 0.2
MLMY	≤ 0.2
KWMS	≤ 0.2
AYMK	≤ 0.2
RPDT	≤ 0.2
PHQI	≤ 0.2
LASL	≤ 0.2
RMQY	0.546
DPCS	≤ 0.2
SQNE	≤ 0.2
NHSN	≤ 0.2
EHMR	≤ 0.2

Variant	one-hybrid fitness for binding parS DNA
CPSG	≤ 0.2
GPNW	≤ 0.2
ALLW	≤ 0.2
FCIC	≤ 0.2
AIDS	≤ 0.2
WFHG	≤ 0.2
AVFN	≤ 0.2
KFPT	≤ 0.2
QIIA	≤ 0.2
KRGY	≤ 0.2
NKKC	≤ 0.2
ASIN	≤ 0.2
QQNW	≤ 0.2
LPNY	≤ 0.2
HYRN	≤ 0.2
MMPS	≤ 0.2
ANPL	≤ 0.2
MALM	≤ 0.2
TYHY	≤ 0.2
GSLR	≤ 0.2
IQLW	≤ 0.2
TIHA	≤ 0.2
RTEK	≤ 0.2
RFAF	≤ 0.2
VISC	≤ 0.2

Variant	one-hybrid fitness for binding parS DNA
IKGT	≤ 0.2
LAWR	≤ 0.2
DPER	≤ 0.2
GVLF	≤ 0.2
EEAS	≤ 0.2
AQEG	≤ 0.2
QGIY	≤ 0.2
PSET	≤ 0.2
NEDC	≤ 0.2
KREV	≤ 0.2
YCHR	≤ 0.2
IDNF	≤ 0.2
NWSR	≤ 0.2
TTSN	≤ 0.2
PLCD	≤ 0.2
MQNE	≤ 0.2
RRDS	0.743
ETSV	≤ 0.2
KYCG	≤ 0.2
PLII	≤ 0.2
APAA	≤ 0.2
QKVA	≤ 0.2
KVGM	≤ 0.2
NFDN	≤ 0.2
WACP	≤ 0.2

Variant	one-hybrid fitness for binding parS DNA
PPLK	≤ 0.2
SFGC	≤ 0.2
SCSC	≤ 0.2
PSFF	≤ 0.2
HMTN	≤ 0.2
ELPC	≤ 0.2
RIYH	≤ 0.2
MNTM	≤ 0.2
CTDF	≤ 0.2
PIKV	≤ 0.2
RADD	≤ 0.2
YSEV	≤ 0.2
RYHY	0.423
LQWG	≤ 0.2
KPKS	≤ 0.2
KSIH	≤ 0.2
ARQV	≤ 0.2
RNCS	0.83
PSAH	≤ 0.2
QWDT	≤ 0.2
CNKV	≤ 0.2
SGRC	≤ 0.2
SPPQ	≤ 0.2
RLPV	≤ 0.2
PNFF	≤ 0.2

Variant	one-hybrid fitness for binding parS DNA
AMEY	≤ 0.2
YCLG	≤ 0.2
SKTG	≤ 0.2
NWHR	≤ 0.2
GAKE	≤ 0.2
TELP	≤ 0.2
EINT	≤ 0.2
QPKM	≤ 0.2
TSLC	≤ 0.2
RHYM	0.325
YLYT	≤ 0.2
TRHI	≤ 0.2
QNAG	≤ 0.2
PRCR	≤ 0.2
RMQD	0.318
KIRT	≤ 0.2
LDHS	≤ 0.2
QQCI	≤ 0.2
QSLQ	≤ 0.2
RKPG	0.552
MMHF	≤ 0.2
DTVD	≤ 0.2
LDYM	≤ 0.2
QYID	≤ 0.2
HWRR	≤ 0.2

Variant	one-hybrid fitness for binding parS DNA
SGGT	≤ 0.2
GPER	≤ 0.2
GHRT	≤ 0.2
LLTM	≤ 0.2
RQDY	0.421
GGKR	≤ 0.2
EFTE	≤ 0.2
LQRY	≤ 0.2
VDSC	≤ 0.2
AKMG	≤ 0.2
GHPW	≤ 0.2
YMRE	≤ 0.2
YTSE	≤ 0.2
LGIY	≤ 0.2
GYLL	≤ 0.2
THDV	≤ 0.2
NYGF	≤ 0.2
WTGC	≤ 0.2
LGND	≤ 0.2
SPFF	≤ 0.2
HMMD	≤ 0.2
RFKG	0.988
CWIY	≤ 0.2
KLWR	≤ 0.2
QAMT	≤ 0.2

Variant	one-hybrid fitness for binding parS DNA
CSLS	≤ 0.2
GDRI	≤ 0.2
YSDY	≤ 0.2
LWRV	≤ 0.2
MALL	≤ 0.2
FGHV	≤ 0.2
YHHV	≤ 0.2
PLTG	≤ 0.2
ENPR	≤ 0.2
KVFK	≤ 0.2
VNLW	≤ 0.2
QRDN	≤ 0.2
GDIR	≤ 0.2
EWTC	≤ 0.2
WMNR	≤ 0.2
ERDC	≤ 0.2
CPAS	≤ 0.2
QIHA	≤ 0.2
FWNV	≤ 0.2
AAPM	≤ 0.2
SIFR	≤ 0.2
DAVF	≤ 0.2
FTSS	≤ 0.2
PYVN	≤ 0.2
CQDS	≤ 0.2

Variant	one-hybrid fitness for binding parS DNA
WKMS	≤ 0.2
QSCV	≤ 0.2
AYNK	≤ 0.2
AARE	≤ 0.2
QQCL	≤ 0.2
VPIG	≤ 0.2
QPPL	≤ 0.2
TPKA	≤ 0.2
RQPP	≤ 0.2
FRKH	0.307
HPCF	≤ 0.2
EGKW	≤ 0.2
IMNW	≤ 0.2
GDER	≤ 0.2
SFQM	≤ 0.2
QMPC	≤ 0.2
PCIL	≤ 0.2
CVYT	≤ 0.2
DGSG	≤ 0.2
RQWN	0.286
